{"source": "PubChem BioAssay AID588855", "about": "(National Center for Advancing Translational Sciences (NCATS), 2011)", "note": "Among all 410,000 compounds or so, about 5,000 (1.2%) were called active. The shares of active, inactive and inconclusive entries below differ from those in the screen. Calls follow the shape of the dose curve; as a rule, active = well fitted inhibition curve with a large enough effect; inconclusive = small, poorly fitted or top-dose-only effect; inactive = no such curve, though single readings can be large or run the other way. Potencies beside an inconclusive call are fits to weak or partial responses and may not hold up. Potency is read from the fitted curve at half-maximal effect; tags tell the direction and shape of the fitted curve."}
{"assay": "qHTS for Inhibitors of TGF-b; also: nearly all actives have a fitted effect of over 65% in size", "details": "HepG2 CAGA-GFP TGF-b/SMAD3 reporter, GFP fluorescence, 18 h, TGF-beta stimulated, 500 pg/mL final; series mostly up to 46.1 µM", "summary_of_the_method": "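Per well, imaged GFP fluorescence of HEPG2 CAGA-GFP cells gives the signal; cells get compound, then TGF-beta (500 pg/mL final), 18 h at 37 degrees C; %Activity versus -TGF-beta and +DMSO controls.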"}
{"smiles": "O=c1c(C=NCCN2CCNCC2)c(O)n(C2CCCCC2)c(=O)n1C1CCCCC1", "Potency": "inconclusive: 11.2 µM [inhibitor, single point]"}
{"smiles": "Cc1cccn2c(=O)c3cc(C(=O)N4CCC5(CC4)OCCO5)n(C)c3nc12", "Potency": "inconclusive: 35.5 µM [inhibitor, single point]"}
{"smiles": "O=S1(=O)N(Cc2ccccc2)CCCN1Cc1cccc(Cl)c1", "Potency": "inactive"}
{"smiles": "C[C@@H]1CN([C@@H](C)CO)C(=O)CCCn2nncc2CO[C@H]1CN(C)C(=O)Oc1ccc2ccccc2c1", "Potency": "inactive"}
{"smiles": "CCOc1cc2c(cc1OCC)-n1cccc1C(c1ccc(F)cc1)NC2", "note": "(stereo unspecified)", "Potency": "inconclusive: 11.2 µM [inhibitor, single point]"}
{"smiles": "COC(=O)C1=C(c2ccc(F)cc2F)C[C@@H]2CC[C@H]1N2C(=O)NCc1ccco1", "Potency": "inconclusive: 22.4 µM [inhibitor, single point]"}
{"smiles": "C#CCOC(=O)C1=CCCN(C)C1", "Potency": "inconclusive: 0.251 µM [inhibitor, full curve, poor fit]"}
{"smiles": "Cc1ccc(S(=O)(=O)N(C)C[C@H]2Oc3c(NC(=O)Nc4cccc5ccccc45)cccc3C(=O)N([C@@H](C)CO)C[C@@H]2C)cc1", "Potency": "inconclusive: 22.4 µM [inhibitor, single point]"}
{"smiles": "COc1ccc(NP(=O)(Oc2cccc(C)c2)Oc2cccc(C)c2)cc1OC", "Potency": "active: 15.8 µM"}
{"smiles": "O=C(Cc1ccccc1)Oc1ccc(N2C(=O)CCC2=O)cc1", "Potency": "inactive"}
{"smiles": "CN(C)C(=O)Oc1ccc(Cl)c2cccnc12", "Potency": "inactive"}
{"smiles": "COc1ccc(CCNCc2ccc(Br)cc2)cc1OC", "Potency": "inactive"}
{"smiles": "COC(=O)C1=C(c2cccc(C#N)c2)C[C@@H]2CC[C@H]1N2C(=O)N1CCCCC1", "Potency": "inconclusive: 17.8 µM [inhibitor, single point]"}
{"smiles": "c1ccc(CCCN2CCN(CCOC(c3ccccc3)c3ccccc3)CC2)cc1", "Potency": "inconclusive: 28.2 µM [inhibitor, single point]"}
{"smiles": "Brc1ccccc1OCCCN1CCOCC1", "Potency": "inconclusive: 5.62 µM [inhibitor, full curve]"}
{"smiles": "Oc1c(C(Nc2cccnc2)c2ccccc2F)ccc2cccnc12", "note": "(stereo unspecified)", "Potency": "inconclusive: 3.16 µM [inhibitor, full curve]"}
{"smiles": "Cc1ccc(-c2cc(-c3ccccc3)cc(-c3ccccc3)[n+]2-c2ccccc2C(=O)O)cc1", "Potency": "inconclusive: 2.51 µM [inhibitor, full curve]"}
{"smiles": "COc1ccc(OCC(=O)N2CCN(Cc3cc(=O)n4nc(-c5ccccc5C)sc4n3)CC2)cc1", "Potency": "inactive"}
{"smiles": "Cc1oc2ccc(O)c(CN3CCCCCC3)c2c1C(=O)Nc1cccc(Cl)c1C", "Potency": "inconclusive: 1.26 µM [inhibitor, full curve, poor fit]"}
{"smiles": "CCOC(=O)c1cccc(-[n+]2c(-c3ccccc3)cc(-c3ccccc3)cc2-c2ccccc2)c1", "Potency": "inconclusive: 7.94 µM [inhibitor, partial curve, poor fit]"}
{"smiles": "COc1cc(OC)cc(-n2nc(C(=O)N3CCC4(CC3)OCCO4)c3ccccc3c2=O)c1", "Potency": "inconclusive: 7.08 µM [inhibitor, partial curve, poor fit]"}
{"smiles": "COC(=O)C1=C(c2ccc(Cl)c(C(F)(F)F)c2)C[C@@H]2CC[C@H]1N2C(=O)NC1CCCCC1", "Potency": "inconclusive: 11.2 µM [inhibitor, partial curve, poor fit]"}
{"smiles": "CN1CCc2cc3c(c4c2C1Cc1ccccc1-4)OCO3", "note": "(stereo unspecified)", "Potency": "inconclusive: 3.55 µM [inhibitor, partial curve, poor fit]"}
{"smiles": "CC(C)(C)n1nnnc1C(c1cc2ccccc2o1)N1CCC2(CC1)C(=O)NCN2c1ccccc1", "note": "(stereo unspecified)", "Potency": "inconclusive: 22.4 µM [inhibitor, single point]"}
{"smiles": "Cc1cc(N2CCCCC2)nc2ccc(NC(=O)/C=C/c3ccc(OC(C)C)cc3)cc12", "Potency": "inconclusive: 12.6 µM [inhibitor, partial curve, poor fit]"}
{"smiles": "CC(C)(C)n1nnnc1C(CCc1ccccc1)N1CCC2(CC1)C(=O)NCN2c1ccccc1", "note": "(stereo unspecified)", "Potency": "inconclusive: 15.8 µM [inhibitor, partial curve, poor fit]"}
{"smiles": "Cc1ccccc1C1=NCC(=S)Nc2ccc(Cl)cc21", "Potency": "inactive"}
{"smiles": "CCCCn1c(O)c(C=NCCCN(C)C)c(=O)[nH]c1=O", "Potency": "inconclusive: 35.5 µM [inhibitor, single point]"}
{"smiles": "O=C(Nc1ccc(Br)cc1)c1ccc(F)c(S(=O)(=O)N2CCCc3ccccc32)c1", "Potency": "inconclusive: 10 µM [inhibitor, partial curve]"}
{"smiles": "COc1cccc(C(=O)C2CCCN(Cc3cccc(C)n3)C2)c1", "note": "(stereo unspecified)", "Potency": "inconclusive: 7.08 µM [inhibitor, partial curve, poor fit]"}
{"smiles": "O=C(CCc1nc(C2=CCN(Cc3cccc(Cl)c3)CC2)no1)Nc1ccccc1F", "Potency": "inconclusive: 8.91 µM [inhibitor, partial curve, poor fit]"}
{"smiles": "CCc1ccc(NC(=O)c2ccc(F)c(S(=O)(=O)N3CCC4(CC3)OCCO4)c2)cc1", "Potency": "inconclusive: 7.94 µM [inhibitor, partial curve, poor fit]"}
{"smiles": "Cc1cccc(N=Nc2ccc(N(C)C)cc2)c1", "Potency": "inactive"}
{"smiles": "O=c1c2ccccc2nc(/C=C/c2ccc3c(c2)OCO3)n1-c1cccc(O)c1", "Potency": "inconclusive: 2.51 µM [inhibitor, partial curve, poor fit]"}
{"smiles": "CCCCn1nnnc1C(CCc1ccccc1)N1CCC2(CC1)C(=O)NCN2c1ccccc1", "note": "(stereo unspecified)", "Potency": "inconclusive: 11.2 µM [inhibitor, partial curve, poor fit]"}
{"smiles": "CN(C)P(=NC(=S)c1cccn1C)(N(C)C)N(C)C", "Potency": "inactive"}
{"smiles": "COc1ccc(-c2nn(-c3ccccc3)cc2C(=O)N2c3ccc(C)cc3C3CN(C)CCC32)cc1", "note": "(stereo unspecified)", "Potency": "active: 10 µM"}
{"smiles": "O=P1(N(CCCl)CCCl)NCCCO1", "note": "(stereo unspecified)", "Potency": "inactive"}
{"smiles": "COC(=O)C1=C(c2cccc(C#N)c2)C[C@@H]2CC[C@H]1N2C(=O)NCc1ccco1", "Potency": "inconclusive: 2.82 µM [inhibitor, full curve, poor fit]"}
{"smiles": "COc1ccccc1OCCCn1cc(C(=O)c2ccco2)c2ccccc21", "Potency": "inconclusive: 12.6 µM [inhibitor, single point]"}
{"smiles": "COC1CC2C=C(C)C=CC=CC(=O)NC(c3ccccc3)CC=CCCC(O)CC(=O)C2=C1O", "note": "(stereo unspecified)", "Potency": "inconclusive: 0.631 µM [inhibitor, full curve, poor fit]"}
